Source: paper PMC4336329 (PLoS ONE, 2015)
Screen size: about 310,000 compounds; about 2,200 (0.71%) showed an effect of 50% or more. Effects have a minus sign here. Some of the results follow.

target: human ether-à-go-go-related gene (hERG) potassium channel (human, UniProt Q12809); test: primary screen, population patch clamp on CHO cells stably expressing hERG
Sequence (Q12809 whole entry, looked up): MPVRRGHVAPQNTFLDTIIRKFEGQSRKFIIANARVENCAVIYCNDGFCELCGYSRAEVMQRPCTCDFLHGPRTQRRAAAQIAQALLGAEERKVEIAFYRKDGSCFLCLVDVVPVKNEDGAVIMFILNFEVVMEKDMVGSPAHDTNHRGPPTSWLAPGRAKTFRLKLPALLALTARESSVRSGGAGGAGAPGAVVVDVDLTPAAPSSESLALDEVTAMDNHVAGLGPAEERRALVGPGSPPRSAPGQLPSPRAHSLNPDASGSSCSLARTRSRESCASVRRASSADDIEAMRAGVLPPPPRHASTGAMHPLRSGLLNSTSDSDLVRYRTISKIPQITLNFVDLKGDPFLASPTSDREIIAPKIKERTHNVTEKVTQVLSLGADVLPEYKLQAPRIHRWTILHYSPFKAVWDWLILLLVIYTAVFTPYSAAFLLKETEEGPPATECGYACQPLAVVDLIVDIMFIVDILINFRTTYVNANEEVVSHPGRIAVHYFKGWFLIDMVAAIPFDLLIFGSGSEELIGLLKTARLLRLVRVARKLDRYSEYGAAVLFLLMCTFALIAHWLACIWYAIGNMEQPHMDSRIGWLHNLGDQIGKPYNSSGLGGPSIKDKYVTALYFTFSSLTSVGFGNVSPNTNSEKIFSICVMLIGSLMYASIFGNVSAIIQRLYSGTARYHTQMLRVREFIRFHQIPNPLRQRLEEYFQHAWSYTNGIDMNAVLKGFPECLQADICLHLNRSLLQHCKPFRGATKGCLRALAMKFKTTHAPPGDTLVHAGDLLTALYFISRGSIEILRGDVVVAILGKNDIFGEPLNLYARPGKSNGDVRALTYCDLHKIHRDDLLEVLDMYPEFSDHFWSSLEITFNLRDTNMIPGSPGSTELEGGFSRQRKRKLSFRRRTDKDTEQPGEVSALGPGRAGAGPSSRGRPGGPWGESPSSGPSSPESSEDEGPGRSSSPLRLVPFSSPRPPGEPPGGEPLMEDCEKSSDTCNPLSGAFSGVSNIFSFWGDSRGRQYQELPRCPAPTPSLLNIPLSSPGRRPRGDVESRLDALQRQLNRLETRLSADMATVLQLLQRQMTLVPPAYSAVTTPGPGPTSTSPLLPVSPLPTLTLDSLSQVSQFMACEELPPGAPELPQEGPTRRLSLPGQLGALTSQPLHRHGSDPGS

SMILES | hERG current change (%, negative = inhibition) at 1uM
CNC(=S)NNC(=O)c1cccn(Cc2cccc(Cl)c2)c1=O | 1.16%
O=C(COc1ccc(Cl)cc1Cl)Nc1ccccn1 | 5.15%
Cc1ccc(COc2ccc(Br)cc2/C=N/O)cc1 | 14.8%
COc1ccc(N2CCN(c3nc(NCCO)nc(N4CCOCC4)n3)CC2)cc1 | 9.27%
CCCCC(CC)C1OCC(CN2CCCC2)O1 (stereo not shown) | 8.83%
O=C(NNC1=NCCCCC1)c1cccc([N+](=O)[O-])c1 | 8.3%
CC[C@H](C)NC(=O)CCCCCn1c(=S)[nH]c2c([nH]c3ccc(OC)cc32)c1=O | 35.6%
CCC(C)C(NC(N)=O)C(=O)NC1CCC(C)CC1 (stereo not shown) | 6.83%
S=C(NCc1ccccc1)N1CCc2ccccc2C1 | 6.13%
Cc1ccc(S(=O)(=O)N2CCCCC2)cc1NC(=O)COC(=O)C1(C)CC1(Cl)Cl (stereo not shown) | -2.48%
CCOC(=O)C1CCN(C(=O)COC(=O)CNC(=O)c2ccc(OC)cc2)CC1 | 10.2%
Cc1ccc(S(=O)(=O)N2CCCN(S(=O)(=O)c3ccc(C)c(C)c3)CC2)cc1C | -0.269%
COc1ccccc1C(=O)Nc1nnc(SCC(=O)NCc2ccco2)s1 | 9.17%
Nc1c(Cl)cc(C2=NCCn3nc4cc(C(F)(F)F)ccc4c32)cc1Cl | 18.6%
Cc1nnc(SCC(=O)NCc2ccccc2)[nH]c1=O | -9.23%
NC(=O)c1c(NC(=O)C(=O)N2CCOCC2)sc2c1CCCC2 | 18.8%
C=C1[C@@H](OC(C)=O)[C@]23C[C@@H]1[C@@H](OC(C)=O)CC2[C@]12C4C[C@H]3[C@H]1N(CC)C[C@]4(C)CC[C@@H]2O (stereo partly shown) | -10%
Cc1ccc([N+](=O)[O-])c(OCCCN2CCC(Cc3ccccc3)CC2)c1.O=C(O)C(=O)O | -95.8%
FC(F)(F)c1ccccc1CCN1CCNCC1 | 18.3%
O=C(CSc1cccc[n+]1[O-])c1ccc(-c2ccccc2)cc1 | 11.4%
O=S(=O)(NCCOc1ccccc1)c1ccc2ccccc2c1 | 16%
CC(C)(C)C(=O)NCCc1nc2ccccc2n1CC(=O)c1ccc(Cl)cc1 | -2.26%

SMILES | hERG current change (%, negative = inhibition) at 1uM
Cc1ccc(NC(NC(=O)c2ccccn2)C(Cl)(Cl)Cl)cc1 (stereo not shown) | -2.99%
N#C/C(=C\c1cn(CCOc2ccccc2)c2ccccc12)C(=O)NCc1cccs1 | 0.228%
CS(=O)(=O)c1ccc(Oc2ccc(-c3nnco3)cc2)c([N+](=O)[O-])c1 | 13.9%
Cc1ccc(C)c(S(=O)(=O)NCc2ccc(C(=O)N3CCCCC3C)cc2)c1 (stereo not shown) | -0.97%
Cc1ccc(CNC(=O)c2ccc3c(c2)NC(=O)CS3)cc1 | 4.9%
CN(c1cccc(NC(=O)COc2ccc(Cl)cc2Cl)c1)S(C)(=O)=O | 1.5%
CCn1c(N2CCN(C(=O)/C=C/c3ccccc3)CC2)nc2ccccc21 | -77.4%
COCCCNC(=O)CSc1nc2ccccc2c(=O)n1CCCC(=O)NCC1CCCO1 (stereo not shown) | -1.22%
CCN(CC)S(=O)(=O)c1cc(C(=O)n2cccn2)c(Cl)cc1Cl | 0.829%
CNC(=S)NNC(=O)c1ccc(=O)n(Cc2cccc(C(F)(F)F)c2)c1 | 10.5%
O=C(c1ccccc1-c1nc2ccccc2[nH]1)N1CCCCC1 | 8.35%
COc1cccc(C(=O)Nc2cc(S(=O)(=O)N3CCCCC3)ccc2OC)c1 | 8.89%
CC(Sc1nc2ccccc2s1)C(=O)NC1CCCc2ccccc21 (stereo not shown) | 11.5%
CS(=O)(=O)N1CCc2nc(-c3ccccc3)sc2C1 | 6.34%
Nc1ccc(S(=O)(=O)c2ccc(N)cc2)cc1 | 10%
CC1=C[C@@H](C)[C@@H](c2ccc(C(F)(F)F)cc2)OC1=O | 7.95%
CCN(CC)CCCNC(=O)c1nn(-c2cccc(OC)c2)c(=O)c2ccccc12 | -66.9%
CCC(=O)N1c2ccc(S(=O)(=O)N3CCN(CC)CC3)cc2CC1C (stereo not shown) | 9.77%
CSCCC(=O)N1CCCC(CNC(=O)c2ccc(-c3ccccc3)cc2)C1 (stereo not shown) | -4.38%
O=C(O)CN1C(=O)/C(=C\c2ccc(OC(=O)c3ccco3)cc2)SC1=S | 9.37%
S=c1[nH]nc(-c2cccnc2)o1 | 16.6%
CCCNS(=O)(=O)c1ccc(CCC(=O)Nc2ccc3c(c2)OCCO3)cc1 | -2.55%

SMILES | hERG current change (%, negative = inhibition) at 1uM
CCOC(=O)c1ccc(N2C(=O)CC(Nc3ccc(CCO)cc3)C2=O)cc1 (stereo not shown) | -13.5%
CCN1CCN(C(=S)NCCOC)CC1.O=C(O)C(=O)O | 7.54%
COc1ccccc1/C=C/C(=O)Nc1nc(N)n(-c2ccccc2)n1 | 0.173%
O=C(CCc1ccccc1)NCCc1nc2ccccc2[nH]1 | 9.75%
Cc1ccc(SCCN2CCC(C)CCC2=O)cc1 (stereo not shown) | -2.54%
CCCN(CC(=O)Nc1ccccc1C)C(=O)CSc1ccccc1C | 14.1%
O=C1C(=O)N(CCO)C(c2ccccc2)/C1=C(\O)c1ccccc1 (stereo not shown) | 7.93%
CCOc1ccc(/C=C2\SC(=O)N(CCNC(=O)CN3C(=O)NC4(CCCC4)C3=O)C2=O)cc1OC | 7.19%
CC1(c2ccccc2)NC(=O)N(Cc2ccc([N+](=O)[O-])cc2)C1=O (stereo not shown) | -16.4%
O=C(NNC(=O)c1cc(-c2ccncc2)nc2ccccc12)Nc1ccc(F)cc1 | 9.21%
CC(C)OCCCNC(=O)c1cc(-c2cccnc2)nc2ccccc12 | 16.5%
COC(=O)c1ccccc1NC(=O)Cn1cnc2ccc(S(=O)(=O)N3CCC(C)CC3)cc2c1=O | 4.04%
O=C(Nc1cnc2ccccc2c1)N1CCOCC1 | 8.57%
CCOc1ccccc1NC(=O)CSc1nnc(C2CC2)n1CC | 16.9%
O=C(O)c1ccccc1-c1nc(-c2ccccc2)c(-c2ccccc2)[nH]1 | 24%
CCn1nnnc1SCC(=O)Nc1ccc2c(c1)OCCO2 | 7.92%
O=C(O)CCc1nc2cc(C(F)(F)F)ccc2n(Cc2ccccc2)c1=O | 23.7%
Cc1cc(=O)oc2c1c(C(F)(F)F)nn2-c1ccccc1 | 7.45%
CCC(C(=O)NC(C)(C)C)N(Cc1cccs1)C(=O)CNS(=O)(=O)c1ccccc1 (stereo not shown) | -0.0593%
O=C(NCCC(=O)N(Cc1ccco1)Cc1cccs1)c1ccc(Br)cc1 | 12.3%
CCc1ccc(NC(=O)N(CCCN2CCOCC2)C(C)c2cc3cccc(OC)c3o2)cc1 (stereo not shown) | 2.34%
Cc1ccc(S(=O)(=O)N(CCCO)CC(O)CON=C2c3ccccc3-c3ccccc32)cc1 (stereo not shown) | 13%

SMILES | hERG current change (%, negative = inhibition) at 1uM
O=C(Cc1ccccc1)c1c[nH]c(C(=O)NCCCN2CCOCC2)c1 | 8.66%
CN(C)CC/C=C1/c2ccccc2CS(=O)(=O)c2ccccc21 | 12.8%
C/C(=N\NC(N)=S)C1(C)CC2(CC(C)(C)OC2=O)C(=O)O1 (stereo not shown) | 10.1%
CCCC(=O)Nc1ccccc1-c1nnn(CC(=O)Nc2ccc(OC)cc2)n1 | -0.23%
C=CCN1C(=O)C(Cc2ccc(C)cc2)S/C1=N/N=C/c1ccco1 (stereo not shown) | 12.1%
Cc1ccc(NCc2nnc(SCC(=O)NNC(=O)Cc3ccccc3)n2C)cc1 | 13.8%
CCOc1ccc(NC(=O)CNC(=O)c2ccc(OC)cc2)cc1 | 10.8%
O=C(NNC(=O)c1cccc(S(=O)(=O)Nc2ccc(Cl)cc2)c1)c1ccc(=O)[nH]c1 | 5.32%
CCc1cc2ccc(C)cc2nc1SCC(=O)N1CCN(C(=O)c2ccco2)CC1 | -11.8%
COc1cc(-c2nnc(SCC3(c4ccccc4)OCCO3)o2)cc(OC)c1OC | 9.72%
CCOc1ccc(Nc2ncnc3ccc([N+](=O)[O-])cc23)cc1 | 18.7%
Cc1ccc(Nc2nc(N)nc(CSc3ncccn3)n2)cc1 | 4.58%
CC(NC(=O)C1CCN(C(=O)Nc2ccccc2)CC1)c1ccccc1 (stereo not shown) | 3.97%
O=C(CCn1nnc(-c2cccs2)n1)NC1CCCCC1 | 9.66%
CC(NC(=O)CSc1nc2ccccc2c(=O)[nH]1)c1ccccc1 (stereo not shown) | -3%
CCCCC(=O)OCC(=O)Nc1ccc(OC(F)F)cc1 | 1.88%
C[C@@H](C(=O)NCc1ccc(S(C)(=O)=O)cc1)[C@H]1C[C@]1(C)[C@H](NC(=O)OCc1ccccc1)c1ccccc1 | 13.3%
CCN(CC)c1ncnc2c1ncn2Cc1c(Cl)cccc1Cl | 13.2%
CCC(C)NC(=O)Nc1ccc2c(c1)N(C)C(=O)c1ccccc1S2 (stereo not shown) | 0.43%
Clc1ccccc1-c1ccc(CN2CCN(c3ccccc3)CC2)o1 | 5.09%
CCNC(=O)C(Cc1ccccc1)NC(=O)OCc1ccccc1 (stereo not shown) | 10.4%
CCS(=O)(=O)N1Cc2ccccc2CC1C(=O)Nc1ccc(F)c(F)c1 (stereo not shown) | 7.83%
